# Measured values reported in the supplement of paper PMC8007513.
# Structures can show the parent of a compound that is named as a salt. ± gives the standard error. Hit rate of the full screen: of about 1,300 compounds, about 75 (6%) showed an effect of 50% or more. The list shows a part of the results.
# Test system: Trichoderma virens ATCC 9645
# Assay: growth yield (OD600) relative to untreated control; higher = less growth inhibition
# Details: compound concentration: 100 uM
# Outline: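 Library compounds (100 μM final), with or without a co-applied biocide (200 ng ml^−1), were added to 100 μl aliquots of Trichoderma virens ATCC 9645 spores at 15,000 spores ml^−1 in potato dextrose broth. Cultures were grown at 30 °C in 96-well plates, and OD600 was measured at 40 h and 72 h. Each growth value is a mean of duplicate screens, expressed relative to the control with neither agent.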
Compound,growth yield (40 h) [%],growth yield (72 h) [%]
COc1ccc(Cl)cc1C(=O)NCCc1ccc(S(=O)(=O)NC(=O)NC2CCCCC2)cc1 [Glibenclamide],102 ± 1.9,111 ± 1.5
Nc1nc(=O)n([C@@H]2CS[C@H](CO)O2)cc1F [(-)-Emtricitabine],102.6 ± 0.32,102 ± 1.1
CC#C[C@]1(O)CC[C@H]2[C@@H]3CCC4=CC(=O)CCC4=C3[C@@H](c3ccc(N(C)C)cc3)C[C@@]21C [Mifepristone],101 ± 3.6,100 ± 4.5
CC(C(O)c1ccc(O)cc1)N1CCC(Cc2ccccc2)CC1 (stereo not given) [Ifenprodil tartrate],96.42 ± 0.79,95.65 ± 0.63
CC(C)[C@H](N)C(=O)OCCOCn1cnc2c(=O)nc(N)[nH]c21 [Valacyclovir hydrochloride],102,103
CN1CCN2c3ncccc3Cc3ccccc3C2C1 (stereo not given) [Mirtazapine],110 ± 1.9,113.2 ± 0.52
CN(C(=O)CN(CCO)CC(=O)N(C)C(C)(C)Cc1ccccc1)C(C)(C)Cc1ccccc1 [Oxethazaine],91.8 ± 1.3,105 ± 1.9
COC(=O)N/N=C/c1c[n+]([O-])c2ccccc2[n+]1[O-] [Carbadox],93.6 ± 1.4,94.1 ± 1.1
CC1(C)O[C@@H]2C[C@H]3[C@@H]4C[C@H](F)C5=CC(=O)C=C[C@]5(C)[C@@]4(F)[C@@H](O)C[C@]3(C)[C@]2(C(=O)CO)O1 [Fluocinolone acetonide],105 ± 2.2,102 ± 1.1
COc1cc(NS(=O)(=O)c2ccc(N)cc2)ncn1 [Sulfamonomethoxine],92.92 ± 0.48,97.75 ± 0.42
Cc1cc(C)nc(NS(=O)(=O)c2ccc(N)cc2)n1 [Sulfamethazine sodium salt],106 ± 4.5,101 ± 2.2
NCCc1ccc(O)c(O)c1 [Dopamine hydrochloride],103 ± 2.4,99.8 ± 1.7
CN(Cc1cc(Br)cc(Br)c1N)C1CCCCC1 [Bromhexine hydrochloride],99 ± 1.1,98.2 ± 1.9
C[C@H](CS)C(=O)N1CCC[C@H]1C(=O)O [Captopril],104 ± 4.8,99.2 ± 1.5
CC1(C)O[C@@H]2C[C@H]3[C@@H]4C[C@H](F)C5=CC(=O)C=C[C@]5(C)[C@H]4[C@@H](O)C[C@]3(C)[C@]2(C(=O)CO)O1 [Flunisolide],100.5 ± 0.48,96.5 ± 1.3
Cc1c(Nc2ncccc2C(=O)O)cccc1C(F)(F)F [Flunixin meglumine],84.5 ± 2.9,87.2 ± 3.7
CC[C@H](c1ccc(O)cc1)[C@@H](CC)c1ccc(O)cc1 [Hexestrol],68 ± 5.1,81.7 ± 3.5
CC(C)(C)NC(=O)[C@H]1CC[C@H]2[C@@H]3CC[C@H]4NC(=O)C=C[C@]4(C)[C@H]3CC[C@]12C [Finasteride],84 ± 5.9,81.1 ± 2
Nc1nc(N)c2nc(-c3ccccc3)c(N)nc2n1 [Triamterene],99.1 ± 2.5,98.1 ± 2.8
CCCCOc1ccc(C(=O)CCN2CCCCC2)cc1 [Dyclonine hydrochloride],93.6 ± 3,98.7 ± 1.6
Cn1nnc2c(C(N)=O)ncn2c1=O [Temozolomide],102 ± 1.1,102.5 ± 0.94
CC(C)(C)CC(C)(C)c1ccc(OCCOCC[N+](C)(C)Cc2ccccc2)cc1 [Benzethonium chloride],1.75 ± 0.16,1.78 ± 0.1
CC(C)NCC(O)COc1cccc2[nH]ccc12 (stereo not given) [Pindolol],102 ± 2.2,103 ± 1.5
OC(CCN1CCCC1)(c1ccccc1)C1CCCCC1 (stereo not given) [Procyclidine hydrochloride],97.69 ± 0.79,98.17 ± 0.63

Compound,growth yield (40 h) [%],growth yield (72 h) [%]
CC(CN(C)C)CN1c2ccccc2CCc2ccccc21 (stereo not given) [Trimipramine maleate salt],92.6 ± 2.7,96.3 ± 2.7
CC(C)C(=O)c1c(C(C)C)nn2ccccc12 [Ibudilast],72.7 ± 1.6,73.83 ± 0.63
CC12CC3CC(C)(C1)CC(N)(C3)C2 [Memantine Hydrochloride],99.4 ± 9.8,97.6 ± 6.4
C#C[C@]1(O)CC[C@H]2[C@@H]3CCC4=Cc5oncc5C[C@]4(C)[C@H]3CC[C@@]21C [Danazol],83.39 ± 0.79,87.15 ± 0.32
O=C(Nc1ccc([N+](=O)[O-])cc1Cl)c1cc(Cl)ccc1O [Niclosamide],96.1 ± 0.16,96.59 ± 0.1
CCOc1ccc(Cc2nccc3cc(OCC)c(OCC)cc23)cc1OCC [Ethaverine hydrochloride],112 ± 16,104 ± 10
CCC[C@@H]1C[C@@H](C(=O)N[C@@H]([C@H]2O[C@H](SC)[C@H](O)[C@@H](O)[C@H]2O)[C@@H](C)O)N(C)C1 [Lincomycin hydrochloride],99.6 ± 2.1,102.7 ± 0.73
CCN(CC)CCN[C@@H](C(=O)OCCC(C)C)c1ccccc1 [Camylofine chlorhydrate],104 ± 1.8,102 ± 1.5
CN1CCCN=C1/C=C/c1cccs1 [Pyrantel tartrate],96.1 ± 2.7,99.2 ± 3.8
NNC(=O)c1ccncc1 [Isoniazid],98.8 ± 0.32,99.8 ± 2.3
CC1(C)O[C@@H]2C[C@H]3[C@@H]4C[C@H](F)C5=CC(=O)CC[C@]5(C)[C@H]4[C@@H](O)C[C@]3(C)[C@]2(C(=O)CO)O1 [Flurandrenolide],102 ± 1.9,97.2 ± 2.6
O=C(O)c1cccnc1 [Niacin],99.75 ± 0.32,97.5 ± 1.5
CCCCc1oc2ccccc2c1C(=O)c1cc(I)c(OCCN(CC)CC)c(I)c1 [Amiodarone hydrochloride],3.18,2.94
O=c1[nH]c(=O)n([C@H]2C[C@H](O)[C@@H](CO)O2)cc1I [Idoxuridine],102 ± 3.8,99.4 ± 3.1
Cc1cccc(N(C)C(=S)Oc2ccc3ccccc3c2)c1 [Tolnaftate],0,0
CCN1CCCC1CNC(=O)c1cc(S(N)(=O)=O)ccc1OC (stereo not given) [Sulpiride],100.5 ± 0.16,98.48 ± 0.32
COc1ccc(-c2ccc3cc(C(=O)O)ccc3c2)cc1C12CC3CC(CC(C3)C1)C2 [Adapalene],107 ± 1.9,106.6 ± 0.84
O=C(O)CCC(=O)c1ccc(-c2ccccc2)cc1 [Fenbufen],79.4 ± 6,76 ± 3.2
CN1CCN2c3ccccc3Cc3ccccc3C2C1 (stereo not given) [Mianserine hydrochloride],97.7 ± 2.1,99.21 ± 0.21
N[C@@H](Cc1ccc(O)c(O)c1)C(=O)O [Levodopa],99 ± 5.6,97.2 ± 2.2
CCCCc1ncc(/C=C(\Cc2cccs2)C(=O)O)n1Cc1ccc(C(=O)O)cc1 [Eprosartan mesylate],98.3 ± 5.6,94.08 ± 0.94
O=C(NC(Cc1cc(=O)[nH]c2ccccc12)C(=O)O)c1ccc(Cl)cc1 (stereo not given) [Rebamipide],99.1 ± 1.9,96.5 ± 1.9
CC(C)(C)NC[C@H](O)COc1cccc2c1CCCC2=O [(-) -Levobunolol hydrochloride],102 ± 3.6,99.2 ± 3.1
C[N+](C)(C)CCOC(N)=O [Carbachol],103 ± 7.2,98.5 ± 6

Compound,growth yield (40 h) [%],growth yield (72 h) [%]
Nc1ncn(C2OC(CO)C(O)C2O)c(=O)n1 (stereo not given) [Azacytidine-5],89.4 ± 5.9,88.4 ± 4.3
CCOC(=O)C1=C(C)NC(C)=C(C(=O)OC)C1c1cccc(Cl)c1Cl (stereo not given) [Felodipine],92.8,94.2
C[C@H](CCC(=O)O)[C@H]1CC[C@H]2[C@@H]3C(=O)C[C@@H]4CC(=O)CC[C@]4(C)[C@H]3CC(=O)[C@]12C [Dehydrocholic acid],97.7 ± 2.7,97.7 ± 2.5
O=C1c2c(O)ccc(O)c2C(=O)c2c(NCCNCCO)ccc(NCCNCCO)c21 [Mitoxantrone dihydrochloride],2.86 ± 2.9,0.21 ± 0.21
CCN(CC)CCNC(=O)c1cc(Br)c(N)cc1OC [Bromopride],98.96 ± 0.48,95.96 ± 0.1
CCCCC(=O)N(Cc1ccc(-c2ccccc2-c2nnn[nH]2)cc1)[C@H](C(=O)O)C(C)C [Valsartan],97.5 ± 2.5,95.02 ± 0.63
OC(CCN1CCCCC1)(c1ccccc1)c1ccccc1 [Pridinol methanesulfonate salt],97.4 ± 2.7,89.8 ± 7.8
CC(C)NNC(=O)c1ccncc1 [Iproniazide phosphate],102 ± 1.3,101 ± 3.5
"O=C1c2cccc(O)c2C(=O)c2c(O)cccc21 [1,8-Dihydroxyanthraquinone]",85.8 ± 11,87.2 ± 8.7
O=C1Nc2ccc(Cl)cc2[C@@](C#CC2CC2)(C(F)(F)F)O1 [Efavirenz],65 ± 3.6,101 ± 5.3
Nc1ccc(C(=O)O)c(O)c1 [4-aminosalicylic acid],93.1,89.36 ± 0.42
CC[N+](C)(CC)CCC[n+]1c(-c2ccccc2)c2cc(N)ccc2c2ccc(N)cc21 [Propidium iodide],83.7 ± 2.4,93.2 ± 2.4
O=C(O)c1ccccc1Nc1cccc(C(F)(F)F)c1 [Flufenamic acid],51 ± 11,69.3 ± 8.1
O=C1O[C@H]([C@@H](O)CO)C(O)=C1O [Ascorbic acid],99.6 ± 1.4,100 ± 1.6
Clc1ccc(C(c2ccccc2Cl)C(Cl)Cl)cc1 (stereo not given) [Mitotane],85.6 ± 2.4,91.3 ± 2
Cc1cccc(C)c1OCC(=O)N[C@@H](Cc1ccccc1)[C@@H](O)C[C@H](Cc1ccccc1)NC(=O)[C@H](C(C)C)N1CCCNC1=O [Lopinavir],101 ± 7.2,112.2 ± 0.63
CN(C)CCOC(=O)C(c1ccccc1)C1(O)CCCC1 (stereo not given) [Cyclopentolate hydrochloride],101 ± 7.3,99.4 ± 6.7
Nc1ccc(/N=N/c2ccccc2)c(N)n1 [Phenazopyridine hydrochloride],21.1 ± 1.4,49.4 ± 6.2
CCC(=O)O[C@]1(C(=O)SCF)[C@H](C)C[C@H]2[C@@H]3C[C@H](F)C4=CC(=O)C=C[C@]4(C)[C@@]3(F)[C@@H](O)C[C@@]21C [Fluticasone propionate],106 ± 7.2,101 ± 3.8
OCCN1CCN(CC/C=C2/c3ccccc3Sc3ccc(Cl)cc32)CC1 [Zuclopenthixol dihydrochloride],15.1 ± 1.8,60.4 ± 5.7
Nc1nc(/C(=C/CC(=O)O)C(=O)N[C@@H]2C(=O)N3C(C(=O)O)=CCS[C@H]23)cs1 [Ceftibuten],89.9 ± 1.3,88.3 ± 3.6
CCc1nn(CCCN2CCN(c3cccc(Cl)c3)CC2)c(=O)n1CCOc1ccccc1 [Nefazodone hydrochloride],93.88 ± 0.16,107 ± 1.8
